Measurements published in patent US20220073613A1, “ACTIVATABLE MASKED ANTI-CTLA4 BINDING PROTEINS” (Xilio Development, Inc., priority 2018, published 2022).

Legend:
[1] = test system: human tumor tissue and normal tissue adjacent to tumor tissue (NAT); assay: Anti-CTLA4 ELISA cleavage analysis with human tumor tissue and NAT (CHTN); type: in vitro ADME
Procedure: Anti-CTLA4 ELISA analyses were performed using human tumor tissue and normal tissue adjacent to tumor tissue (NAT) obtained from the Cooperative Human Tissue Network (CHTN). The antibodies tested include Antibody 2-14, Antibody 2-16, and Antibody 1334. […] The percentage of molecule cleaved by the tumor is slightly higher for Antibody 2-16 (26%) than Antibody 2-14 (22%). The overall percentage of molecule cleaved by the NAT is higher for Antibody 2-14 (24%) than Antibody 2-16 (7%).

[2] = Pharmacokinetics in cynomolgus monkeys; type: in vivo; conditions: 10 mg/kg intravenous dose
[3] = test system: healthy monkey (cynomolgus) tissues and plasma; assay: Ex vivo cleavage in healthy monkey tissues and plasma, CTLA4 ELISA; type: in vitro ADME
Procedure: In another study, ex vivo cleavage of healthy monkey (cynomolgus) tissues (N=2) and plasma (N=3) was assessed using a CTLA4 ELISA assay. Tissues tested included kidney, spleen, liver, bladder, skin, colon, and lung.

[4] = In vivo cleavage in plasma of healthy cynomolgus monkeys, CE and MS
Procedure: In another study, in vivo cleavage was assessed in the plasma of healthy cynomolgus monkeys at 1 hour, 1 day, and 7 days after administration. Cleavage was identified by capillary electrophoresis (CE) and by mass spectrometry (MS). The abundance of cleavage products at expected cleavage site within Antibody 2-14 (VPLS**LY) was calculated. Cleavage at another site (VPLSLY**SGG) was also calculated for comparison. The abundance of cleavage for Antibody 2-16 was also calculated.

B1: Antibody 2-16: masked Antibody 2-6: mask CPFPALELC, cleavable peptide DSGGFMLT; SEQ ID NO: 422 and 421 (protein)
light: ACPFPALELCSSGGSGPDSGGFMLTSGGEIVLTQSPDFQSVTPKEKVTITCSANSALSYMYWYQQKPDQSPKLWVHGTSNLASGVPSRFSGSGSGTDFTLTINSLEAEDAATYYCHHWSNTQWTFGGGTKVEIKRTVAAPSVFIFPPSDEQLKSGTASVVCLLNNFYPREAKVQWKVDNALQSGNSQESVTEQDSKDSTYSLSSTLTLSKADYEKHKVYACEVTHQGLSSPVTKSFNRGEC
heavy: QVQLVQSGAEVKKPGSSVKVSCKASGYTFTNYFMNWVRQAPGQGLEWMGRVDPEQGRADYAEKFKKRVTITADKSTSTAYMELSSLRSEDTAVYYCARRAMDNYGFAYWGQGTLVTVSS[human IgG1 constant region with changes left out here]
[1]; Bladder, NAT
  Frequency of cleavage: 0/3
  Percent (%) of cleavage: 0%
[1]; Bladder, Tumor
  Frequency of cleavage: 0/5
  Percent (%) of cleavage: 0%
[1]; Breast, NAT
  Frequency of cleavage: 1/4
  Percent (%) of cleavage: 5%
[1]; Breast, Tumor
  Frequency of cleavage: 1/4
[1]; Colon, NAT
  Frequency of cleavage: 3/8
  Percent (%) of cleavage: 3%
[1]; Colon, Tumor
  Frequency of cleavage: 5/7
  Percent (%) of cleavage: 50%
[1]; Liver, NAT
  Frequency of cleavage: 1/5
  Percent (%) of cleavage: 71%
[1]; Liver, Tumor
  Frequency of cleavage: 1/6
  Percent (%) of cleavage: 2%
[1]; Lung, NAT
  Frequency of cleavage: 1/6
  Percent (%) of cleavage: 2%
[1]; Lung, Tumor
  Frequency of cleavage: 1/7
  Percent (%) of cleavage: 21%
[1]; Lymph node, Tumor
  Frequency of cleavage: 0/1
  Percent (%) of cleavage: 0%
[1]; Melanoma, NAT
  Frequency of cleavage: 1/1
  Percent (%) of cleavage: 9%
[1]; Melanoma, Tumor
  Frequency of cleavage: 1/3
  Percent (%) of cleavage: 1%
[1]; Ovary, NAT
  Frequency of cleavage: 0/1
  Percent (%) of cleavage: 0%
[1]; Ovary, Tumor
  Frequency of cleavage: 2/9
  Percent (%) of cleavage: 5%
[1]; Renal cell, NAT
  Frequency of cleavage: 9/25
  Percent (%) of cleavage: 2%
[1]; Renal cell, Tumor
  Frequency of cleavage: 4/26
  Percent (%) of cleavage: 26%
[1]; Total, NAT
  Frequency of cleavage, as percent: 30%
  Percent (%) of cleavage: 7%
[1]; Total, NAT (samples cleaved/samples)
  Frequency of cleavage: 16/53
[1]; Total, Tumor
  Frequency of cleavage, as percent: 22%
  Percent (%) of cleavage: 26%
[1]; Total, Tumor (samples cleaved/samples)
  Frequency of cleavage: 15/68
[2]
  pharmacokinetics (level of antibody in plasma over 14 days): favorable pharmacokinetics
[3]; cyno lung
  percentage of cleavage: 30%
[3]; cyno plasma
  percentage of cleavage: absence of cleavage detected
[3]; cyno spleen
  percentage of cleavage: 15%
[4]
  cleavage using CE or MS: no cleavage was identified
[4]; 1 hour
  abundance of the intact (uncleaved) antibody: 100%
[4]; 24 hours
  abundance of the intact (uncleaved) antibody: 100%
[4]; 72 hours
  abundance of the intact (uncleaved) antibody: 100%
